# Laboratory results: the supplement of paper PMC7726561
# Over roughly 1,100 sequences, “thermal melting temperature (Tm) of peptide-HLA complex” has its median near 58; the lowest 2% begin near 42. The list shows a part of the results.
# B1: unnamed (peptide)
# chain: LQVEEVHQL
# B2: unnamed (peptide)
# chain: FLLPKVQSI
# B3: unnamed (peptide)
# chain: ILYSKTEHL
# B4: unnamed (peptide)
# chain: NLMKSAFVV
# B5: unnamed (peptide)
# chain: ILYPKTLFL
# B6: unnamed (peptide)
# chain: SLADLQNDEV
# B7: unnamed (peptide)
# chain: LLDGNPFRV
# B8: unnamed (peptide)
# chain: NLHEGDIIL
# B9: unnamed (peptide)
# chain: RVFSDIIYTV
# B10: unnamed (peptide)
# chain: YLTNEGIQYL
# B11: unnamed (peptide)
# chain: SVDSKPPVI
# B12: unnamed (peptide)
# chain: KLLEPVLLL
# B13: unnamed (peptide)
# chain: ILGGPGTVQGV
# B14: unnamed (peptide)
# chain: SLLEVNEESTV
# B15: unnamed (peptide)
# chain: NLLKLIAEV
# B16: unnamed (peptide)
# chain: ALLSGLREA
# B17: unnamed (peptide)
# chain: NLMDIKIGL
# B18: unnamed (peptide)
# chain: IMLEALERV
# B19: unnamed (peptide)
# chain: FLFNTENKL
# B20: unnamed (peptide)
# chain: SILEDPPSI
# B21: unnamed (peptide)
# chain: GLWGPEEEPHL
# B22: unnamed (peptide)
# chain: VLDTLTKVLV
# B23: unnamed (peptide)
# chain: ALLDIQSSGRA
# B24: unnamed (peptide)
# chain: FIFSDTHEL
# B25: unnamed (peptide)
# chain: VLSSDGVWRV
# B26: unnamed (peptide)
# chain: YLSPDLSKV
# B27: unnamed (peptide)
# chain: RLQEFIDEV
# B28: unnamed (peptide)
# chain: YLDPAQRGV
# B29: unnamed (peptide)
# chain: SLLNQPKAV
# B30: unnamed (peptide)
# chain: KILVSLIEV
# B31: unnamed (peptide)
# chain: KLVGEFLEV
# B32: unnamed (peptide)
# chain: VLNNVVIHL
# B33: unnamed (peptide)
# chain: LLIPGLATA
# B34: unnamed (peptide)
# chain: VLIDVGTGYYV
# B35: unnamed (peptide)
# chain: SLFPHNPQFI
# B36: unnamed (peptide)
# chain: GLDALKVTV
# B37: unnamed (peptide)
# chain: SLDDHVVAV
# B38: unnamed (peptide)
# chain: GLPRFGIEMV
# B39: unnamed (peptide)
# chain: TLIDLPGITRV
# B40: unnamed (peptide)
# chain: SLLEKQQIYL
# B41: unnamed (peptide)
# chain: LLDEEISRV
# B42: unnamed (peptide)
# chain: EVISKLYAV
# B43: unnamed (peptide)
# chain: LLDPSVFHV
# B44: unnamed (peptide)
# chain: KLLWTTSRV
# B45: unnamed (peptide)
# chain: ILDAGGHNVTI
# B46: unnamed (peptide)
# chain: QLAEDIEALKV
# B47: unnamed (peptide)
# chain: QLVDIIEKV
# B48: unnamed (peptide)
# chain: RLQEDPPVGV
# B49: unnamed (peptide)
# chain: TLSEVTNQL
# B50: unnamed (peptide)
# chain: YLLTESSKL
# B51: unnamed (peptide)
# chain: SLLDIIEKV
# B52: unnamed (peptide)
# chain: GLVDEKALAQA
# B53: unnamed (peptide)
# chain: MLNEHDFEV
# B54: unnamed (peptide)
# chain: GILGIQPPSV
# B55: unnamed (peptide)
# chain: RMLPHAPGV
# B56: unnamed (peptide)
# chain: KLLEIDIDGV
# Target: HLA-A*02:01
# Test: thermal melting temperature (Tm) of peptide-HLA complex; higher = more thermostable pHLA complex
# Conditions: C1R-A*02:01
# 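Also: cell lysates heated 10 min at 37–73 °C, remaining pHLA pulled down with pan-class I antibody, peptides quantified by DIA-MS versus 37 °C, Tm where half the complex is lost.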
row,Sequence,thermal melting temperature [°C]
1,B1,53.2
2,B2,63
3,B3,50.9
4,B4,51.4
5,B5,61.8
6,B6,61.6
7,B7,56.6
8,B8,48.3
9,B9,54.8
10,B10,63
11,B11,48.3
12,B12,59.4
13,B13,57.5
14,B14,59.6
15,B15,59.7
16,B16,62.6
17,B17,56.7
18,B18,59.6
19,B19,54.7

row,Sequence,thermal melting temperature [°C]
1,B20,59.4
2,B21,61.8
3,B22,46.3
4,B23,53
5,B24,54.4
6,B25,56.3
7,B26,61.9
8,B27,62.7
9,B28,62.8
10,B29,58.7
11,B30,57.3
12,B31,45.7
13,B32,60.3
14,B33,61
15,B34,56
16,B35,58.8
17,B36,53.9
18,B37,60.2
19,B38,60.1

row,Sequence,thermal melting temperature [°C]
1,B39,56.9
2,B40,60.5
3,B41,56.3
4,B42,45.4
5,B43,61.8
6,B44,60.1
7,B45,54.5
8,B46,58.9
9,B47,58
10,B48,61.3
11,B49,58.1
12,B50,55.2
13,B51,63.1
14,B52,58
15,B53,57.8
16,B54,60.5
17,B55,60.3
18,B56,58
